Test results reported in PubChem BioAssay AID485344 (National Center for Advancing Translational Sciences (NCATS), 2010).
Screen size: about 340,000 compounds; about 6,900 (2%) were called active. No stated cut-off is given here; in the data, active means inhibition above about 30%; inactive means below that, where a call was filed. The entries are a selection whose mix differs from that of the whole data set. The source gives no active or inactive call for entries shown without one.

Biological target: D(2) dopamine receptor (Homo sapiens) (UniProt P14416)
Sequence of UniProt P14416 (P14416 whole entry, looked up): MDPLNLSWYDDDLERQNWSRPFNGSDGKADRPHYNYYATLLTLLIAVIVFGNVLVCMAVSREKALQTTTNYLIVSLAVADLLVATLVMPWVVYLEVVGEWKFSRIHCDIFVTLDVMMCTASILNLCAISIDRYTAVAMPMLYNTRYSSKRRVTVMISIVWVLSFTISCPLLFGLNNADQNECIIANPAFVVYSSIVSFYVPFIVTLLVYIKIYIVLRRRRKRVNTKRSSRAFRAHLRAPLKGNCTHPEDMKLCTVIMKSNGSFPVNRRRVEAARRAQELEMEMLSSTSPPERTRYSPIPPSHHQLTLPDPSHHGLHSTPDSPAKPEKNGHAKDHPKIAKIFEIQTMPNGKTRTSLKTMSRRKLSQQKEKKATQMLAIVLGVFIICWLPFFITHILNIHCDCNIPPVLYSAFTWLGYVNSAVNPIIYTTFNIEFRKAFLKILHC
Test: HTS Assay for Allosteric Antagonists of the Human D2 Dopamine Receptor: Primary Screen for Antagonists; further: 0% is about no effect
Details: HEK293 TREx D2 cells, calcium flux, dopamine EC80; at 10 µM; stronger effect = higher value
Summary of the method: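 Calcium flux kinetic readout in an inducible HEK293 TREx D2 line plated overnight at 30 C. After 180 s compound exposure, an EC80 dopamine challenge follows with another 180 s kinetic read to detect antagonism.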

Row | Structure (SMILES) | inhibition
1 | CCC(=O)N1c2ccccc2CC1C(=O)NCCc1ccc(OC)c(OC)c1 (stereo unspecified) | 5.88%
2 | COC(=O)CN1C(=O)CSc2ccc(S(=O)(=O)Nc3cc(C)ccc3C)cc21 | -8.54%
3 | CCc1nn2c(=O)cc(COC(=O)COc3ccc(OC)cc3)nc2s1 | 16.1%
4 | CCC(=O)Nc1cccc(NC(=O)c2ccc(C)cc2Cl)c1 | active: 34.6%
5 | Cc1c(C(=O)Nc2cccc(C(F)(F)F)c2)oc2ccc3c(c12)C(=O)CC(C)(C)O3 | 2.81%
6 | CC1=C(c2ccc(C)c(C)c2)S(=O)(=O)NC1=NCc1ccccc1Cl | 7.61%
7 | CCOC(=O)c1c(C)[nH]c(C)c1S(=O)(=O)N1CCC(C(=O)Nc2cc(Cl)ccc2OC)CC1 | 1.4%
8 | Cc1cc(C)c(NC(=O)c2sc3nc(C)cc(C)c3c2NC(=O)c2ccccc2)c(C)c1 | -6.98%
9 | CCOc1ccc(CCNC(=O)c2cn(C)c3ccc(S(=O)(=O)N4CCCCC4)cc3c2=O)cc1OCC | 7.33%
10 | COc1ccccc1C(=O)Nc1cccc(C(=O)OCc2cc(=O)n3cc(C)sc3n2)c1 | 0.894%
11 | Clc1cccc(-c2ccc(CNCCSc3nnnn3-c3ccccc3)o2)c1 | -24.6%
12 | O=C(c1ccccc1)N1CCN(CCc2ccncc2)CC1 | 27%
13 | COc1ccc(OC)c(NS(=O)(=O)c2ccc3c(c2)C(C)(C)C(=O)N3C)c1 | 22.9%
14 | COc1cc(CN2CCC(C(=O)N3CCN(c4ccccc4F)CC3)CC2)ccc1O | active: 38.7%
15 | COc1ccc(S(=O)(=O)Nc2cccc(-c3ccc(N4CCCC4)nn3)c2)c(OC)c1 | 9.73%
16 | Cc1ccc(C)c(NC(=O)N2CCN(C(=O)c3nsc4ccccc34)CC2)c1 | -12.2%
17 | Cc1nnc(N2CCC(C(=O)NC3CCCCC3)CC2)c2nn(-c3ccccc3)c(C)c12 | 10.4%
18 | COc1ccc(CNC(=O)c2cc3cc4cc(OC)ccc4nc3o2)cc1 | 10.5%
19 | COc1cccc(CNC(=O)c2ccc3c(c2)c(C)c(C)n3Cc2ccccc2)c1 | 9.4%
20 | Cc1noc(C)c1COc1ccc(C(=O)OC(C)C(=O)Nc2ccc(N3CCOCC3)cc2)cc1 (stereo unspecified) | active: 44.7%
21 | CCOc1ccccc1N(CC)C(=O)Cn1ncc2c([nH]c3ccccc32)c1=O | 1.26%

Row | Structure (SMILES) | inhibition
22 | NC(=O)C1CCN(C(=O)c2ccc(NC(=O)c3nsc4ccccc34)cc2)CC1 | -6.85%
23 | O=C(CNC1CCN(Cc2ccccc2)CC1)Nc1ccc(S(=O)(=O)N2CCCCC2)cc1 | active: 37%
24 | CCOc1ccccc1-c1nc(CN2CCCN(C(=O)c3ccco3)CC2)c(C)o1 | active: 32.8%
25 | COc1ccc(NC(=O)c2cc(S(=O)(=O)N3CCOCC3)ccc2OC)cc1 | 3.47%
26 | COc1ccc(S(=O)(=O)N2CCC(C(=O)Nc3ccc(Oc4ccccc4)cc3)CC2)cc1 | -22.2%
27 | COc1ccc(Cn2c(C(=O)O)c(CNCc3ccccc3F)c3ccc(OC)cc32)cc1 | -8.96%
28 | COC(=O)c1ccc(C2c3c(-c4ccccc4O)n[nH]c3C(=O)N2Cc2cccnc2)cc1 (stereo unspecified) | 10.7%
29 | CCCSc1ncc(Cl)c(C(=O)Nc2ccc(S(=O)(=O)N(C)c3ccccc3)cc2)n1 | 8.74%
30 | CCN(CCCNC(=O)Cn1ncc2c3ccccc3n(C)c2c1=O)Cc1ccccc1 | -4.63%
31 | COc1cccc(CN(C)C(=O)CNC(=O)c2cccs2)c1OC | active: 37.6%
32 | O=C(Nc1cc(-c2nc3cc(Cl)ccc3o2)ccc1Cl)c1ccco1 | -14.5%
33 | CC1CCCN(C(=O)CSc2c3c(nc4cc(Cl)ccc24)CCCC3)C1 (stereo unspecified) | 15.4%
34 | CCc1ccc(NC(=O)CSc2nc(=O)n(Cc3ccccn3)c3c2CCC3)cc1 | 19.5%
35 | O=C(Nc1nnc(S(=O)(=O)N2CCCc3ccccc32)s1)c1cccc(Cl)c1 | 11.9%
36 | COc1cccc(C2C(C(=O)Nc3ccc(C)cc3C)=C(C)Nc3c(C(=O)Nc4ccccc4)cnn32)c1 (stereo unspecified) | 14.2%
37 | CCc1ccc(NC(=O)N2CCOc3ccc(Cl)cc32)cc1 | -10.5%
38 | COc1cc(Cl)c(S(=O)(=O)NCCc2c(C)[nH]c3c(C)cccc23)cc1Cl | 8.08%
39 | COC(=O)c1ccc(NC(=O)CC2C(=O)N(c3cccc(OC)c3)C(=O)N2Cc2cccs2)cc1 (stereo unspecified) | 6.51%
40 | Cc1ccc(-c2nc(NC(=O)CSc3cc(C)c4ccccc4n3)ns2)cc1 | 19.1%
41 | CCOC(=O)C1CCN(Cc2cnc(Oc3ccc(N)cc3)s2)CC1 | active: 67.1%
42 | COc1ccccc1CNS(=O)(=O)c1ccc2c(c1)CC(C)N2C(C)=O (stereo unspecified) | 3.13%

Row | Structure (SMILES) | inhibition
43 | O=C(NCc1ccccc1)c1ccc(CNS(=O)(=O)c2ccc(Br)cc2)cc1 | -4.15%
44 | CC1CCN(S(=O)(=O)c2ccc3c(c2)N(CC(=O)NC(C)c2ccccc2)C(=O)CS3)CC1 (stereo unspecified) | 10.8%
45 | O=C(Cc1cccs1)NCCCc1ccccc1 | active: 69.4%
46 | CC(C)Cn1cc(NC(=O)N2CCN(c3cccc(Cl)c3)CC2)c2ccccc2c1=O | 1.98%
47 | Cc1ccc(C)c(N2CCN(S(=O)(=O)c3ccc4[nH]c5c(c4c3)CCCCC5)CC2)c1 | 9.25%
48 | Cc1ccc(CN2CCC(c3nc4ccc(Cl)cc4[nH]3)CC2)cc1 | active: 86.8%
49 | CCN(CC)S(=O)(=O)c1ccc(NC=C(C#N)C#N)cc1 | active: 74.1%
50 | COc1ccc(CCNC(=O)C(=O)Nc2ccccc2F)cc1 | -4.92%
51 | COc1ccccc1C(=O)NCCn1cc(SCC(=O)Nc2ccccc2F)c2ccccc21 | 8.7%
52 | Cc1ccc(CNC(=O)C(=O)Nc2c3c(nn2-c2ccccc2)CSC3)cc1 | 10%
53 | CCOC(=O)C(=NCCCN(C)C)NNc1cc(C(F)(F)F)ccc1Cl | active: 35.2%
54 | CCCCN(CC)C(=O)CSc1nc2n[nH]c(C)c2c(=N)n1-c1cccc(Cl)c1 | -19.5%
55 | CCOC(=O)c1[nH]c(C)c(CCC(=O)N2CCN(c3cccc(OC)c3)CC2)c1C | -1.12%
56 | CCOc1ccc(NC(=O)Cn2ncc3c2-c2cc(C)ccc2OC3)cc1 | 14.2%
57 | Cc1ccc(NC(=O)Cc2ccc(-n3c(C)nc4cccnc43)cc2)c(Cl)c1 | 11.1%
58 | CCC(=O)N1CCc2cc(Br)cc(S(=O)(=O)CCC(=O)NCc3ccccc3OC)c21 | -10.1%
59 | CCO[C@H]1OC(C(=O)N2CCCCCCC2)=C[C@@H](c2ccc(C(F)(F)F)cc2)[C@@H]1CCCO | active: 30.3%
60 | Cc1csc(NS(=O)(=O)c2cccc([N+](=O)[O-])c2)n1 | active: 34.3%
61 | CCOCCc1nn2c(=O)cc(COC(=O)c3ccccc3NC(=O)C3CCCCC3)nc2s1 | 3.46%
